About 64,000 (15%) of roughly 420,000 compounds were called active. This list was built around the results that the source calls inconclusive (neither active nor inactive); the mix of calls is not that of the screen. Calls follow the shape of the dose curve; as a rule, active = well fitted inhibition curve with a large enough effect; inconclusive = small, poorly fitted or top-dose-only effect; inactive = flat fitted curve, though single readings scatter. No potency is given beside an inconclusive call; the fits are too rough.
experiment: qHTS for Inhibitors of human tyrosyl-DNA phosphodiesterase 1 (TDP1): qHTS in cells in absence of CPT; conditions: DT40 Tdp1-/- hTDP1 cells, no CPT, ATP luminescence, 48 h; activity change, negative = growth inhibition: at 46.2 µM (top of the series) unless noted; also: nearly all actives have a fitted effect of over 55% in size
Outline: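 Seeded 400 DT40-hTDP1 cells/well (vehicle DMSO, no 20 nM CPT); pinned compounds; ≥48 hr at 37 °C; CellTiter-Glo luminescence as viability measure.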
% is scaled to controls: 0 for no effect and ±100 for the full control effect; potency is read from the fitted curve at half-maximal effect; tags tell the direction and shape of the fitted curve.

SMILES	activity change, negative = growth inhibition	Potency
COc1ccc(-c2ccc3c(c2)S(=O)(=O)c2cccc(C(=O)NC4CCCC4)c2C3=O)cc1OC	inactive: -21.7%	
COc1ccc(NC(=O)c2cnn(-c3ccccc3)c2C)cc1OC		inconclusive [inhibitor, single point]
CCC(=O)N1CCc2cc(Br)cc(S(=O)(=O)CCC(=O)NCCc3ccc(C)cc3)c21		inconclusive [inhibitor, single point]
COc1ccc(OCC(=O)N/N=C/c2cccn2-c2cccc(C(=O)O)c2)cc1	inactive: -17.8%	
O=[N+]([O-])c1ccc(O)c(/C=N/Nc2ccccn2)c1		active: 1.46 µM
CN1CCN(NC(=S)NC(C)(C)CC(C)(C)C)CC1		inconclusive [inhibitor, single point]
O=C(CSc1nc(=O)n2cc(Cl)ccc2n1)Nc1cccc2ccccc12		inconclusive [inhibitor, single point]
CC(C)CCNC(=O)c1cc2c(=O)[nH]c3ccccc3c2s1		inconclusive [inhibitor, single point]
CCOC(=O)C1CCCN(C2=NC(=O)/C(=C/c3ccc(O)c(OCC)c3)S2)C1 (stereo unspecified)		inconclusive [inhibitor, single point]
Cc1cccc(N2C(=O)C(CC(=O)Nc3ccc(F)cc3)N(C3CCCC3)C2=O)c1 (stereo unspecified)	inconclusive: -30.6% [inhibitor]	
Cc1cc2oc(=O)c(CC(=O)NCCCN(C)C)c(C)c2c2occ(C(C)(C)C)c12		inconclusive [inhibitor, single point]
COc1ccc(NC(=S)NC(=O)c2cccnc2)cc1	inactive: -13%	
Cc1ccc(S(=O)(=O)n2nc(-c3ccccc3)nc2NCc2ccccc2Cl)cc1		inconclusive [inhibitor, single point]
Cc1ccc(CN2CCS(=O)(=O)CC2)o1	inactive: 4.06%	
CCC(C)c1ccccc1N1CC(C(=O)Nc2ccc(N3CCOCC3)cc2)CC1=O (stereo unspecified)	inactive: -7.09%	
O=C(Nc1ccc(F)c(Cl)c1)c1cc(C2CCCN(C(=O)c3cccs3)C2)on1 (stereo unspecified)		inconclusive [inhibitor, single point]
COc1ccc(S(=O)(=O)NCc2csc(C)n2)cc1OC	inactive: 12.2%	
O=C(C(=O)N1CCN(c2ccccc2)CC1)c1ccncc1	inactive: -15.2%	
CN(C(=O)c1cccc(NC(=O)Cc2ccc(NC(=O)C3CCN(C(=O)C4CCC4)CC3)cc2)c1)C1CCCCC1		inconclusive [inhibitor, single point]
O=C(NC(=S)Nc1ccccc1O)c1cncc(Br)c1		active: 23.1 µM
CNc1nc(Nc2ccc(Br)cc2)nc(N)c1[N+](=O)[O-]	inconclusive: -33.3% [inhibitor]	
Cc1cccc(C)c1NC(=O)CSc1cc(C(=O)c2nccn2C)c2ccccc2n1		inconclusive [inhibitor, partial curve]
Fc1ccc(Nc2nc(-c3cccnc3)nc3ccccc23)cc1		inconclusive [inhibitor, full curve, poor fit]

SMILES	activity change, negative = growth inhibition	Potency
CCCC[C@@H]1CNC(=O)C(=O)N1CC(C)(C)C	inactive: 7.11%	
Cc1ccc(C2=NOC(=O)/C2=C\C=C\c2ccccc2)cc1		active: 4.61 µM
O=C(CCC(=O)c1ccc(F)cc1)OCc1nnc(-c2ccc([N+](=O)[O-])cc2)o1	inactive: 0.684%	
O=C(c1ccc(Cl)cc1)C(CN1CCCC1)c1ccccc1 (stereo unspecified)		active: 4.11 µM
O=C(CNC(=O)c1ccc(Br)o1)NNC(=O)c1n[nH]c(=O)c2ccccc12	inactive: 7.7%	
COc1ccc2c(c1OC)CCC2=O	inactive: -7.82%	
O=C(NC[C@H](O)c1ccccc1)c1ccccc1	inactive: -9.06% [at 9.04 µM]	
COc1cc(CNCCNC(=O)c2nonc2N)ccc1OCc1ccc(Cl)cc1		active: 20.6 µM
COc1ccccc1NS(=O)(=O)c1cccc(C(=O)N2CCN(C/C=C/c3ccccc3)CC2)c1		active: 20.6 µM
C#C[C@]1(O)CC[C@H]2[C@@H]3CCC4=Cc5oncc5C[C@]4(C)[C@H]3CC[C@@]21C		inconclusive [inhibitor, single point]
CCOC(=O)C(=O)N1CCN(c2nc(-c3ccc(Cl)cc3)cs2)CC1		inconclusive [inhibitor, partial curve]
Cc1ccc(-c2cc(C(=O)N3CCN(S(=O)(=O)c4ccc(Br)s4)CC3)[nH]n2)cc1C		active: 13 µM
CCC(C)NC(=O)CSc1nnc(-c2cc(-c3ccc(C)cc3)nc3ccccc23)n1N (stereo unspecified)		inconclusive [inhibitor, single point]
O=C(CCCC(=O)N(CC(=O)NC1CCCCC1)c1cccc(F)c1)Nc1ccccn1	inactive: -4.15%	
Cc1ccc(S(=O)(=O)N(CC(=O)NCCSc2ccccn2)c2ccccc2F)cc1		inconclusive [inhibitor, single point]
Cc1ccc(C)c(NC(=O)Cn2c(=O)n(Cc3nc(C)no3)c(=O)c3cc4c(cc32)OCO4)c1		inconclusive [inhibitor, single point]
CSc1nc(N)nc2c1ncn2CC(=O)NCc1ccc2[nH]ccc2c1		inconclusive [inhibitor, single point]
CN1C(=O)N(C)c2ccc(Br)c3cccc1c23		inconclusive [inhibitor, single point]
CC(CCc1ccco1)NC(=O)CCc1nnc2ccc(NCc3ccccc3Cl)nn12 (stereo unspecified)		inconclusive [inhibitor, single point]
CCN(CC)C(=O)C1CCCN(C(=O)c2oc3ccc(C)cc3c2C)C1 (stereo unspecified)		inconclusive [inhibitor, single point]
COc1ccc(S(=O)(=O)N2CCC(C(=O)N3CCCCC3)CC2)cc1		inconclusive [inhibitor, partial curve]
CSc1ccc(C(=O)C2CCCN(Cc3ccc(N4CCNC4=O)cc3)C2)cc1 (stereo unspecified)		inconclusive [inhibitor, single point]
N#Cc1nc(-c2ccco2)oc1NCCN1CCOCC1	inconclusive: -36.6% [inhibitor]	

Reference: PubChem BioAssay AID686978 (National Center for Advancing Translational Sciences (NCATS), 2013)
